# In all, about 33,000 sequences were measured (“E-score (-0.5 to 0.5)”: median about -0.035, highest 2% from about 0.34 on). This is one part of the list.
# Biological target: T1, Mot3 (UniProt P54785)
# T1 sequence: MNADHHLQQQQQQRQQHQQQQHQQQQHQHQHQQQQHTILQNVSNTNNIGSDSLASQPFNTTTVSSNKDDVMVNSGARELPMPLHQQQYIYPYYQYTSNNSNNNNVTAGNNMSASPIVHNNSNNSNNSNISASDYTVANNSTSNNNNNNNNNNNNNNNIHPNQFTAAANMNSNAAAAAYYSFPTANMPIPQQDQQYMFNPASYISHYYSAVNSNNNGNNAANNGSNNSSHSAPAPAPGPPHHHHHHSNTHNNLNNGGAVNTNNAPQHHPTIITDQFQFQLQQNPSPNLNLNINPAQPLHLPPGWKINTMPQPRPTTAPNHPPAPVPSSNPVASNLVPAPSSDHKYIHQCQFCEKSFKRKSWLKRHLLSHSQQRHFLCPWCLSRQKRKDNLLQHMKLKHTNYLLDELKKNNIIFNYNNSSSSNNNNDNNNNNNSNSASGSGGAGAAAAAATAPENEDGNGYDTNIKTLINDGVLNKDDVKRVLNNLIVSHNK
# Experiment: PBM E-score (8-mer binding enrichment) (E-score (-0.5 to 0.5)); higher = stronger / more preferred TF binding; most listed sequences are background and not binding sites
# Conditions: protein concentration: 200 nM; construct: GST-full length
# Procedure: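 Universal 'all 10-mer' protein binding microarrays (Agilent AMADID 015681) probed with GST-tagged S. cerevisiae TFs (full-length or DBD) made by in vitro transcription/translation (PURExpress), about 100-200 nM. Bound TF was detected with fluorescent anti-GST. Each ungapped 8-mer (which stands for itself and its reverse complement) is scored by the PBM enrichment score (E-score), a modified Wilcoxon-Mann-Whitney statistic from -0.5 to +0.5, computed with the Universal PBM Analysis Suite. Scale: above 0.35 generally sequence-specific binding.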
row,Sequence,PBM E-score
1,GATCCAAA,0.0177
2,AGCACTGG,-0.15
3,CCACCCGC,-0.155
4,ACACCACT,-0.00421
5,GTTTGGGA,-0.0644
6,AACAAGCT,0.177
7,CAAATTCA,-0.0972
8,AATGTCCA,-0.0949
9,ATGGCAAT,-0.0216
10,CTAGCTAC,-0.0866
11,GACCGGGA,-0.271
12,GATTTACC,0.0796
13,GTAATTGA,0.277
14,GAGTTATC,-0.204
15,CACCTTTA,0.105
16,AGTGTGTA,0.247
17,ATACCTAG,0.131
18,AAGAGGAG,-0.133
19,CGGCGCCA,-0.137
20,CCTGACAC,0.025
21,ACGCCCCG,-0.265
22,CAGAGCCG,-0.157
23,GATAGTGC,-0.0565
24,ACTAATGG,-0.161
25,CATCCCAC,-0.212

row,Sequence,PBM E-score
1,GATTCAAA,-0.0689
2,GATGTGAA,0.211
3,TAGGAACA,0.416
4,AACGCGTT,0.335
5,GTTCCCCA,-0.0776
6,AAACTTCC,-0.145
7,GATATACC,-0.117
8,CATAACGC,0.188
9,CATAGCGC,0.0893
10,AGATATCA,0.0215
11,TGGTATAA,0.0814
12,GAACTTCC,-0.0463
13,CGTTTGAG,-0.0011
14,CCACACGA,-0.0566
15,AAGCTCAG,-0.215
16,TAAGCTCA,-0.00546
17,AAACGAAA,0.0838
18,GAAGCAAC,0.0752
19,CGCGGTGA,-0.163
20,AATCGCGC,-0.0999
21,AAAATTCG,0.116
22,ACCCTTAT,0.117
23,CCCCCGGA,-0.397
24,AGGAGGGC,-0.206
25,CTGGGAGC,-0.166

row,Sequence,PBM E-score
1,CCATTCCA,-0.0555
2,CCATACCC,-0.243
3,CGGAGACA,-0.142
4,CTGTGGGC,0.0151
5,GGCACCGA,0.356
6,GCGAAATA,0.0149
7,AAAACATC,0.151
8,CAACAGAG,0.068
9,AACGCGTC,0.194
10,AGGGGTGC,-0.121
11,CATCTGAG,-0.186
12,AGGCACAC,0.487
13,GATAAGCA,-0.00323
14,ACGCAGCA,0.113
15,CTTCCGGC,0.0464
16,CCTCGAGG,-0.336
17,CACTGGCC,-0.267
18,CTCCGCAA,-0.0257
19,CGTTTATA,0.12
20,AGAAGATA,0.106
21,CCATTAAA,0.0359
22,CACTATCG,-0.148
23,TGATGGCA,-0.0645
24,AGCTTCGG,-0.247
25,ATGATTGC,0.167

row,Sequence,PBM E-score
1,CGATACTA,0.0333
2,CCAGGTTA,-0.00113
3,GTTCAAAA,0.0223
4,CAAAGACC,-0.0124
5,CACCCATA,-0.215
6,GATGGACA,-0.0995
7,GAATCGGC,-0.269
8,TCCGAAAA,-0.261
9,ACTCTCGG,-0.197
10,ACACCTCA,-0.0741
11,ACCGGCTC,-0.299
12,ACCCTGAG,-0.0403
13,GACGCACA,-0.131
14,ATAACTAG,0.0326
15,CTATGATC,0.0348
16,ACGTGACC,-0.0113
17,GTGAGAGA,0.0715
18,CAGACTCC,-0.335
19,CGCCAGAC,-0.05
20,ACAAGTAA,0.169
21,CTTTATAC,0.198
22,GAATACCC,-0.137
23,ATGACCTA,-0.00208
24,CGCGCCCC,-0.316
25,AGATTAGA,0.0126

row,Sequence,PBM E-score
1,GAGCTGCA,-0.352
2,AAGTTCGT,-0.0605
3,ATGATTCA,-0.0564
4,CCGTCATC,-0.297
5,ACACGATC,0.347
6,CATCCGCC,-0.314
7,AGGCTGGA,-0.233
8,ACTAATCT,-0.137
9,GTGGTACA,-0.00186
10,AACAGGAG,0.0835
11,CGCGTGAC,0.0817
12,TGAAATAA,0.213
13,CTAAAATC,-0.0313
14,GCTTTTAA,0.0026
15,TCGCGAAA,0.00419
16,CCGCATCG,-0.235
17,TACGAGAA,0.0768
18,AGTAGAAT,0.0735
19,CTGGTCTA,-0.195
20,GCCGACTA,-0.0944
21,CGACATCC,-0.071
22,AAGGCAAA,0.479
23,ACGTTCTA,0.0886
24,AGATTTCC,0.113
25,ACCGCTTG,0.00252

row,Sequence,PBM E-score
1,CAACGGGA,-0.0539
2,CCATGACG,-0.184
3,CTGCGCTA,-0.15
4,GCCGGAGA,-0.247
5,AGACGAGC,-0.245
6,GCCTCCAA,-0.00806
7,AGACACAT,-0.0431
8,CCCCGTCG,-0.239
9,CTCGATAA,-0.0356
10,AAAAGAAC,0.107
11,ATAAAGGA,0.0864
12,ACATTTGG,-0.0323
13,GTAGCTGA,-0.146
14,CGAAGGTA,0.366
15,GCACAGAC,0.195
16,GGAAGCTA,-0.325
17,CTGGTTGA,-0.102
18,CCAATAAA,-0.0259
19,GACCTGTA,-0.0895
20,AGTCCGGA,-0.0421
21,AGTAGCGA,-0.0559
22,AAAATAAT,0.2
23,AGACACAG,-0.00149
24,CACCACGA,-0.126
25,ACGGCATG,-0.00947

row,Sequence,PBM E-score
1,CAGTATGA,-0.0857
2,CGGTATGC,-0.227
3,CACAGTAA,0.0633
4,GTTAACCA,0.195
5,GCCCGCCC,-0.145
6,GCTGAGCA,0.141
7,CTTTAAGA,0.0024
8,GAGCGACA,0.104
9,GAAAGTGC,-0.154
10,ATGTGACG,0.0311
11,ACGCAGAC,0.107
12,ATGGGTGG,-0.155
13,ACCGTTCA,-0.025
14,ATTATTCC,0.0513
15,ACTCACAT,0.0353
16,GTGCAAGA,0.112
17,TGCCGCCA,-0.237
18,GAAGGAAC,0.468
19,AAGTCGGA,0.0846
20,AATCAGAT,0.0335
21,GAGCGCAC,-0.307
22,GTCATATA,0.101

# — the supplement of paper PMC3334620
